Results on 109 sequences are retold here after the supplement of paper PMC3334620.

Over roughly 33,000 sequences, “E-score (-0.5 to 0.5)” has its median near -0.035; the highest 2% begin near 0.35. This is one part of the list.

The target of this test is T1, Pdr3 (UniProt P33200).
T1 sequence: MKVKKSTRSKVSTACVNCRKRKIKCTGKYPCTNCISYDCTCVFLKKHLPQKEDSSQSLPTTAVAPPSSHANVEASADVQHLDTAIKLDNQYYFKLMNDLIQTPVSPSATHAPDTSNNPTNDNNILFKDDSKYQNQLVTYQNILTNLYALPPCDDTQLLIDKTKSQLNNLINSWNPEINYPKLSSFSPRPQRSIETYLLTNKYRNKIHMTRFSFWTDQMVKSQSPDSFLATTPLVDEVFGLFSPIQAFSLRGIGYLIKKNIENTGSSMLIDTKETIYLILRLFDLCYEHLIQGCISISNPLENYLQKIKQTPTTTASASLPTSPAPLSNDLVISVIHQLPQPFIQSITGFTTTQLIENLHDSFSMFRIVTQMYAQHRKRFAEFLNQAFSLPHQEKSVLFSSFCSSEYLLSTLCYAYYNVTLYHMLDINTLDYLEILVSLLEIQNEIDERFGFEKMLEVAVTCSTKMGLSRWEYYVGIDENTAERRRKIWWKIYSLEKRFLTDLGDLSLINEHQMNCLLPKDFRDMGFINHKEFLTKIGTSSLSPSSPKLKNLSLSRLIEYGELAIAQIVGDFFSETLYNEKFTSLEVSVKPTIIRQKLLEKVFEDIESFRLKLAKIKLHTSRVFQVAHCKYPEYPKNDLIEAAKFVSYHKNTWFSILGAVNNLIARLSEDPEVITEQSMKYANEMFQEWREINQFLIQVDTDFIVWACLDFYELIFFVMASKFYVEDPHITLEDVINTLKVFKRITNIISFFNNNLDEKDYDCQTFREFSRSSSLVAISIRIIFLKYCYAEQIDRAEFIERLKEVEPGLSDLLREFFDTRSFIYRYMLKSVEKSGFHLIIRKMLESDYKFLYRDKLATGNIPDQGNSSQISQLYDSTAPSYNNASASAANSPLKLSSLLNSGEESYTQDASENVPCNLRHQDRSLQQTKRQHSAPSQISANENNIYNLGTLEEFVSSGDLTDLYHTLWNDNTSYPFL
Briefly: PBM E-score (8-mer binding enrichment) (E-score (-0.5 to 0.5)); higher = stronger / more preferred TF binding; most listed sequences are background and not binding sites. The conditions noted are these: protein concentration: 200 nM; construct: GST-full length. The procedure, abridged: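 Full-length yeast transcription factors or their DNA-binding domains, GST-tagged and expressed with PURExpress, were applied at about 100-200 nM to universal all-10-mer Agilent arrays. These arrays had been made double-stranded by primer extension on fresh or once-stripped slides. Detection used fluorescent anti-GST, normalisation used masliner, and E-scores for ungapped eight-base words pooled with reverse complements came from the Universal PBM Analysis Suite.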
In the case of ATGGGCTG, the “PBM E-score” value is -0.118.
For AATCACCA, the “PBM E-score” value is 0.0775.
To ACAGGCCC belongs -0.19; to AACTAAAT, -0.111; to CCACTTTC, -0.127.
As for CGGGATCC, the “PBM E-score” value came to 0.417.
For CCGTGAAA, the “PBM E-score” value turned out to be 0.223.
For CTTTACTA, the “PBM E-score” value stood at 0.177.
For the sequence AACTTGCA, the “PBM E-score” value is -0.0273.
For GCCCCTGA, the “PBM E-score” value was -0.0645.
To ACGGTTTG belongs 0.05.
For the sequence GTGAGCCA, the “PBM E-score” value was -0.229.
To ATAAATAA belongs 0.151.
To CAATGGAA belongs 0.173; to CCTCTTCA, -0.271; to ATAAGTAA, -0.0984.
Turning to CTCTTAGA, the “PBM E-score” value is -0.104.
With TCGTCACA, the “PBM E-score” value is -0.00184.
With AGAAAAAC, the “PBM E-score” value is -0.0952.
To CCGGTCCC belongs 0.312; to ATTACGAG, 0.0348; to AATTAGCC, -0.031.
For the sequence AGATTATG, the “PBM E-score” value came to 0.0343.
For AGCGTGGG, the “PBM E-score” value was -0.253.
On to ACATCATA, for which the “PBM E-score” value was found to be 0.015.
To CCATCCCC belongs 0.123; to CACATGCG, -0.016.
Turning to ACATACCG, the “PBM E-score” value amounted to 0.0282.
To AGCATCAT belongs -0.0546; to TACGATAA, -0.16.
Turning to CAAATTTC, the “PBM E-score” value was -0.136.
To AACTCGCT belongs 0.0814.
Consider AGCTCGCA, for which the “PBM E-score” value was -0.0591.
With GACCACTC, the “PBM E-score” value turned out to be 0.0932.
As to GTACCTCA, the “PBM E-score” value is -0.112.
Turning to CTAGGCAC, the “PBM E-score” value was -0.221.
To AAAGGAAG belongs -0.0796.
In the case of GCCTGATA, the “PBM E-score” value was -0.199.
For CTCGCGAA, the “PBM E-score” value was -0.0599.
As to TACTCAGA, the “PBM E-score” value was -0.0418.
Turning to ATTAGAGC, the “PBM E-score” value is -0.0155.
As to ACATCGAT, the “PBM E-score” value came out at 0.0403.
To ACTAAGGA belongs -0.0238; to CTGACTGC, -0.186.
Take GTGGAGGA: the “PBM E-score” value came to 0.016.
In the case of GACACGCC, the “PBM E-score” value was found to be 0.0793.
As to AGCTGGTA, the “PBM E-score” value was -0.0594.
Consider CTCAGTCA, for which the “PBM E-score” value was -0.218.
For GGAAATTA, the “PBM E-score” value was found to be 0.219.
In the case of GAGAGCCC, the “PBM E-score” value was -0.223.
As for ACAGTCTG, the “PBM E-score” value was -0.131.
To GAGCCAGA belongs 0.002; to TCGCCCGA, 0.0174.
Take CGGATAGC: the “PBM E-score” value came to 0.251.
Regarding CCGTCAAA, the “PBM E-score” value is 0.0872.
In the case of GATTTGAA, the “PBM E-score” value was -0.03.
For CTAAGACA, the “PBM E-score” value is -0.125.
To GACAAATC belongs -0.0649; to GAAAAAAA, 0.168.
Turning to CCGGTTTC, the “PBM E-score” value worked out at 0.235.
As for AGGCCCTG, the “PBM E-score” value is -0.124.
To TCTGCTCA belongs -0.282.
Regarding CAAAAGGG, the “PBM E-score” value is -0.144.
For GAAAAGAC, the “PBM E-score” value is 0.123.
Take CGCCTTAC: the “PBM E-score” value is -0.22.
For the sequence ATAGATAC, the “PBM E-score” value is -0.0777.
Take GTACACGA: the “PBM E-score” value is -0.0206.
To CCGTATGA belongs 0.23; to TTACTGAA, -0.0355; to AGCAGTCC, 0.0198.
To CGCGCTGA belongs 0.104; to GACATTCA, 0.0508; to GGAAGTAA, 0.234.
For CGCTGGAA, the “PBM E-score” value is 0.171.
For the sequence GGTAATTA, the “PBM E-score” value stood at 0.115.
With GACATGAC, the “PBM E-score” value was -0.217.
As to CCGAATTC, the “PBM E-score” value is 0.315.
AAGCTCTA: the “PBM E-score” value was -0.243.
To ATCACGGG belongs 0.0804; to CGACGGCA, 0.138.
GAAATGCA: the “PBM E-score” value amounted to 0.0293.
As for GCGCTGCC, the “PBM E-score” value was -0.0982.
In the case of CAATCGAG, the “PBM E-score” value was -0.129.
Take ACCATGTC: the “PBM E-score” value was -0.0507.
In the case of CGGTTTTA, the “PBM E-score” value amounted to 0.162.
Consider CATTCCCC, for which the “PBM E-score” value was 0.213.
Turning to GCGTGACA, the “PBM E-score” value was -0.029.
Take CTGCTATA: the “PBM E-score” value was determined as 0.138.
With CCTAAGCA, the “PBM E-score” value was -0.174.
To CACTGTAC belongs -0.34; to CATAATGC, -0.0347; to ACGTTGCT, -0.086.
For the sequence GGCAGGAC, the “PBM E-score” value came to 0.0548.
As for GCCTCCCA, the “PBM E-score” value is -0.199.
GAACGACA: the “PBM E-score” value is -0.144.
With CACTACGA, the “PBM E-score” value was -0.152.
GAAGCTGA: the “PBM E-score” value is 0.143.
Consider GGATTAGA, for which the “PBM E-score” value is 0.0234.
With AGATAACG, the “PBM E-score” value was 0.251.
To GATTTACA belongs 0.0545; to AGTTTTTG, -0.0169.
As for GCACCGAC, the “PBM E-score” value was 0.104.
For AAAAGTGC, the “PBM E-score” value was -0.0754.
To GAATCATA belongs 0.0241.
Turning to CATCACTA, the “PBM E-score” value is -0.11.
To GTCATAAC belongs -0.105.
Take CCACCGGG: the “PBM E-score” value came to 0.257.
Regarding CATTTAAA, the “PBM E-score” value came to 0.227.
To CCGGTTTA belongs 0.179.
